Test results as given in the supplement of paper PMC9151546.
Repeats are few or missing, and single values can be far off.

Experiments:
CHO-K1 [1] = assay: hypodiploid nuclei frequency (% of nucleated events); higher = more hypodiploid events (aneugenic)
Experimental: (§1)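 Flow-cytometric in vitro micronucleus assay (Litron MicroFlow) in CHO-K1 cells in 96-well plates, 19 concentrations (4.5-200 µM, n=1 per concentration). Without S9, cells were exposed for 24 h and sampled at 48 h. With Aroclor 1254-induced rat liver S9, cells were exposed for 3-4 h and sampled at 27-28 h. Read-outs are %MN and %hypodiploid nuclei relative to nucleated events, and relative survival as the nuclei-to-bead ratio versus the 1% DMSO vehicle control (x100).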

CHO-K1 [2] = assay: relative survival (nuclei to bead ratio vs DMSO control) (% of vehicle control); higher = more surviving cells
Experimental: as §1

CHO-K1 [3] = assay: micronucleus frequency (% of nucleated events); higher = more micronuclei (genotoxic)
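Wherever hypodiploid nuclei frequency (% of nucleated events) is given: hypodiploid nuclei gated on a flow cytometer with 488 nm excitation after SYTOX Green staining, cultures at 37 °C, positive controls vinblastine without S9 and cyclophosphamide with S9.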
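Wherever micronucleus frequency (% of nucleated events) is given: cells lysed with nuclei stained by SYTOX Green, then micronucleus-gated events counted against nucleated events by flow cytometry with 488 nm excitation.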
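Wherever relative survival (nuclei to bead ratio vs DMSO control) is given: Lysed-cell nuclei stained with SYTOX Green and counted against counting beads by flow cytometry at 488 nm excitation, with vinblastine (no S9) and cyclophosphamide (plus S9) as positive controls.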

O=c1c(-c2ccc(O)cc2)coc2cc(O)ccc12 [Daidzein]
Conditions	hypodiploid nuclei frequency, CHO-K1 [1] [%]	micronucleus frequency, CHO-K1 [3] [%]	relative survival, CHO-K1 [2]
concentration: 4.5 (µM), S9 metabolic activation: with S9, exposure time: 3-4 hours	0.28	1.32	92
concentration: 4.5 (µM), S9 metabolic activation: without S9, exposure time: 24 hours	0.68	1.08	117
concentration: 5.63 (µM), S9 metabolic activation: with S9, exposure time: 3-4 hours	0.22	1.1	87.3
concentration: 5.63 (µM), S9 metabolic activation: without S9, exposure time: 24 hours	0.56	1.14	96.3
concentration: 7.04 (µM), S9 metabolic activation: with S9, exposure time: 3-4 hours	0.24	0.7	91.7
concentration: 7.04 (µM), S9 metabolic activation: without S9, exposure time: 24 hours	0.62	1.14	97.4
concentration: 8.8 (µM), S9 metabolic activation: with S9, exposure time: 3-4 hours	0.22	1.58	87.1
concentration: 8.8 (µM), S9 metabolic activation: without S9, exposure time: 24 hours	0.34	1.08	93.1
concentration: 11 (µM), S9 metabolic activation: with S9, exposure time: 3-4 hours	0.22	1.32	90.3
concentration: 11 (µM), S9 metabolic activation: without S9, exposure time: 24 hours	0.72	1.08	105
concentration: 13.7 (µM), S9 metabolic activation: with S9, exposure time: 3-4 hours	0.2	1.46	109
concentration: 13.7 (µM), S9 metabolic activation: without S9, exposure time: 24 hours	0.7	1.06	88.1
concentration: 17.2 (µM), S9 metabolic activation: with S9, exposure time: 3-4 hours	0.36	1.36	90
concentration: 17.2 (µM), S9 metabolic activation: without S9, exposure time: 24 hours	0.42	0.98	84.5
concentration: 21.5 (µM), S9 metabolic activation: with S9, exposure time: 3-4 hours	0.32	1.82	87.3
concentration: 21.5 (µM), S9 metabolic activation: without S9, exposure time: 24 hours	0.58	1.24	82.5
concentration: 26.8 (µM), S9 metabolic activation: with S9, exposure time: 3-4 hours	0.22	1.84	92
concentration: 26.8 (µM), S9 metabolic activation: without S9, exposure time: 24 hours	0.66	1.66	87.2
concentration: 33.6 (µM), S9 metabolic activation: with S9, exposure time: 3-4 hours	0.44	2.5	91
concentration: 33.6 (µM), S9 metabolic activation: without S9, exposure time: 24 hours	0.72	1.22	89.1
concentration: 41.9 (µM), S9 metabolic activation: with S9, exposure time: 3-4 hours	0.38	2.88	86.2
concentration: 41.9 (µM), S9 metabolic activation: without S9, exposure time: 24 hours	0.58	1.66	93.6
concentration: 52.4 (µM), S9 metabolic activation: with S9, exposure time: 3-4 hours	0.42	3.52	77.4
concentration: 52.4 (µM), S9 metabolic activation: without S9, exposure time: 24 hours	0.72	1.12	85
concentration: 65.5 (µM), S9 metabolic activation: with S9, exposure time: 3-4 hours	0.46	3.22	78.5
concentration: 65.5 (µM), S9 metabolic activation: without S9, exposure time: 24 hours	0.56	1.5	85
concentration: 81.9 (µM), S9 metabolic activation: with S9, exposure time: 3-4 hours	0.84	4.88	77.2
concentration: 81.9 (µM), S9 metabolic activation: without S9, exposure time: 24 hours	0.7	1.52	86.3
concentration: 102 (µM), S9 metabolic activation: with S9, exposure time: 3-4 hours	1.78	8.7	59.7
concentration: 102 (µM), S9 metabolic activation: without S9, exposure time: 24 hours	0.56	1.48	93.6
concentration: 128 (µM), S9 metabolic activation: with S9, exposure time: 3-4 hours	2.48	10.5	54
concentration: 128 (µM), S9 metabolic activation: without S9, exposure time: 24 hours	0.7	1.32	85.4
concentration: 160 (µM), S9 metabolic activation: with S9, exposure time: 3-4 hours	–	–	32.3
concentration: 160 (µM), S9 metabolic activation: without S9, exposure time: 24 hours	0.54	1.62	71.8
concentration: 200 (µM), S9 metabolic activation: with S9, exposure time: 3-4 hours	–	–	22.9
concentration: 200 (µM), S9 metabolic activation: without S9, exposure time: 24 hours	0.88	1.3	63.8
